# Data reported in PMC4336329 (PLoS ONE, 2015).
# Among all 310,000 compounds or so, about 14,000 (4.5%) showed an effect of 50% or more. Effects have a minus sign here. The list shows a part of the results.
# Molecular target: human ether-à-go-go-related gene (hERG) potassium channel (human, UniProt Q12809)
# Experiment: primary screen, population patch clamp on CHO cells stably expressing hERG
# 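Further: peak tail current of the secondary pulse compared with the same well before compound.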
# Sequence of human ether-à-go-go-related gene (hERG) potassium channel (Q12809 whole entry, looked up): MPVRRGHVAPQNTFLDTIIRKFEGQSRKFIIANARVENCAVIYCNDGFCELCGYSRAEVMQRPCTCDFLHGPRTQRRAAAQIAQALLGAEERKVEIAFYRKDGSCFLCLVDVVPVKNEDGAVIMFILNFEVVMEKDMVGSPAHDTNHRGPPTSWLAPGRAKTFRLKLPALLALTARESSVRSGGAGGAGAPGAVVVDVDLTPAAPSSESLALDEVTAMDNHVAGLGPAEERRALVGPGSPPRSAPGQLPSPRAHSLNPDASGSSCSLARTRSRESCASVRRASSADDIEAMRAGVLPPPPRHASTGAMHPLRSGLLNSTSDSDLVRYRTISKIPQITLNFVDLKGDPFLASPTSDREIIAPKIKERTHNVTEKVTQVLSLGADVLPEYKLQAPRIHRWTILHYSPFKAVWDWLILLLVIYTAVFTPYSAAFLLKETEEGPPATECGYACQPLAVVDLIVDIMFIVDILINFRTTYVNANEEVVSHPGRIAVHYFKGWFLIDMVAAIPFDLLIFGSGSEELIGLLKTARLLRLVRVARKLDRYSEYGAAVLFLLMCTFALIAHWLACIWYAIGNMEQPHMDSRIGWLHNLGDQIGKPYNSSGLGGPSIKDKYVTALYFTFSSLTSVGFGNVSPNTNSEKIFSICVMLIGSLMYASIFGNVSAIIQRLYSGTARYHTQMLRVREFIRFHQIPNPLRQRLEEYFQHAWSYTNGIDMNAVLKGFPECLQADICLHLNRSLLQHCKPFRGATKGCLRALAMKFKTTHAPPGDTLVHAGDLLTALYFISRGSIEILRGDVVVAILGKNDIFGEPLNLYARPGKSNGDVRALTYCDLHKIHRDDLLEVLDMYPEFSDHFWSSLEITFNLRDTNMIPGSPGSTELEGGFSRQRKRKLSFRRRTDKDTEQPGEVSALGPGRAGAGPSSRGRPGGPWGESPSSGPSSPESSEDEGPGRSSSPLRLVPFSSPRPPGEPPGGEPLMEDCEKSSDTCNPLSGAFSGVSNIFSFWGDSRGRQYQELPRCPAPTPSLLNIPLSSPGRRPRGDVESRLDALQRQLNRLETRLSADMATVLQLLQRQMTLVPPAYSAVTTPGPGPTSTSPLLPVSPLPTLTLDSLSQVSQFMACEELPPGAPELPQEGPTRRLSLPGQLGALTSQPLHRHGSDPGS
row,Compound,"hERG current change (%, negative = inhibition) at 10uM [%]"
1,CC(C)=CCc1c(O)cc2c(c1O)C(=O)CC(c1ccc(O)cc1)O2 (centres unmarked),1.34
2,O=C1C(c2ccncc2)=C(O)c2ccccc21,1.47
3,CN(CC(=O)NCc1ccccc1Cl)S(=O)(=O)c1ccc2c(c1)n(C)c(=O)c(=O)n2C,10.1
4,COc1ccc(CN2CCNC(=O)C2CC(=O)N(C)Cc2nccn2C)cc1OC (centres unmarked),17.3
5,Nc1nnc(COc2cccc(C(F)(F)F)c2)s1,0.784
6,Cc1ccc(CNC(=O)COC(=O)Cn2nc(C)c([N+](=O)[O-])c2C)cc1,-16.3
7,O=C(CCS(=O)(=O)c1ccc(Br)cc1)Nc1ccccc1Cl,21
8,O=C(Nc1cccnc1)c1cccc([N+](=O)[O-])c1,4.96
9,CCn1c(C)c(C)c2cc(C(=O)NCCCN3CCCCC3)ccc21,-12.8
10,Cn1/c(=N/N=C/c2ccc(N3CCOCC3)cc2)sc2ccccc21,2.81
11,CC(C)(C)NC[C@@H](O)COc1cccc2c1CCCC2=O.Cl,-3.34
12,Cl.O=C(CN1CCOCC1)NCC12CC3CC(CC(C3)C1)C2,3.71
13,CCOc1ccc(-n2c(SCC(N)=O)nc3c(c2=O)SCC3)cc1,12
14,CCOC(=O)C1CCN(Cc2cc(C(C)C)c(O)c(C(C)C)c2)CC1,-41.3
15,O=[N+]([O-])/C=C1\C=CC=CN1Cc1ccc(Cl)cc1,-12.8
16,CCOc1ccc(C(O)(c2ccccc2OC)C(CN2CCCC2)c2ccccc2)cc1.Cl (centres unmarked),-18.3
17,Cc1cccc(-n2ncc3c(NCCCn4ccnc4)ncnc32)c1,-16.5
18,Cc1ccc(C(=O)Nc2ccc3c(c2)CCC3)o1,-17.1
19,S=c1[nH]nc(-c2ccccc2)n1Cc1ccccc1,5.13
20,COc1ccc(N=C2SC(CC(=O)Nc3ccccc3)C(=O)N2CCN2CCOCC2)cc1 (centres unmarked),-23.1
21,Nc1ccc(Cl)cc1/C(=N/O)c1ccccc1,6.2
22,CCOc1ccc(NC(=O)CN2CCCC2c2cccs2)cc1S(=O)(=O)N1CCCCC1 (centres unmarked),-11.8

row,Compound,"hERG current change (%, negative = inhibition) at 10uM [%]"
1,CCOC(=O)c1sc(S(C)=O)c2c1CCc1conc1-2 (centres unmarked),-8.56
2,COc1ccc(Br)cc1/C=N/n1c(COc2ccccc2)n[nH]c1=S,23.7
3,COc1ccc(Cl)cc1NS(=O)(=O)c1cccc(C(=O)NCC2CCCO2)c1 (centres unmarked),-5.08
4,CCOC(=O)N1CCC(N2CCN(Cc3ccc(C)o3)C(CCO)C2)CC1 (centres unmarked),-4.54
5,CNC(=O)CC1C(=O)N(c2ccc(OC)cc2)C(=S)N1NC(=O)c1cccc(F)c1 (centres unmarked),6.04
6,O=C(CCS(=O)(=O)c1ccc(Br)cc1)NCc1ccc(F)cc1,9.4
7,Cc1nc(C)c(CCNC(=O)c2ccccc2)s1,30.2
8,CCOC(=O)c1sc(/N=C/N(C)C)nc1C,7.67
9,CCOC(=O)c1sc(NC(=O)/C=C/c2cnn(C)c2C)c(C(=O)OCC)c1C,9.79
10,CCCc1cc(=O)[nH]c(SCc2ccc(F)cc2)n1,2.84
11,CCOc1ccc(C(=O)OCn2nnc3ccccc3c2=O)cc1OC,3.01
12,CC(=O)C1=C(C)NC(SCC(=O)c2ccc(Cl)cc2)=C(C#N)C1CC(C)C (centres unmarked),0.245
13,Nc1nc(SCC(=O)c2cccs2)n[nH]1,11.6
14,CC(C)(C)c1ccc(OC(=O)N2CCOCC2)cc1,14
15,Cc1cc2c(N)cccc2nn1,-0.488
16,Cc1c(NC(=O)/C(C#N)=C/C2CC=CCC2)c(=O)n(-c2ccccc2)n1C (centres unmarked),20.1
17,CCCCNc1ccc(S(=O)(=O)c2cccc([N+](=O)[O-])c2)cc1[N+](=O)[O-],-22.2
18,COC(=O)Cn1c2ccccc2c2nc(C)sc21,-1.56
19,Cc1ccc(NC(=O)CCc2c(C)nn(-c3ccc(N4CCCCC4)nn3)c2C)cc1F,-6.63
20,CCC(C)(C)NC(=O)C(c1cccn1C)N(C(=O)Cn1nnc2ccccc21)c1ccc(OC)cc1OC (centres unmarked),-11.7
21,COc1cc2nc(Cl)nc(N3CCN(C)CC3)c2cc1OC,-13.2
22,C#CCOCCOCCOCCNc1nc(N2CCN(C(=O)CCCCCCCCCCNC(=O)Cn3cc(C[C@@H](C)O)nn3)CC2)nc(N2CCN(C(=O)CCCCCCCCCCNC(=O)[C@@H](CCSC)n3cc(CCO)nn3)CC2)n1,10.1
